From PubChem BioAssay AID1745853 (National Center for Advancing Translational Sciences (NCATS), 2022)
The other results are listed elsewhere or left out. Shown are side measurements of this screen, not its main read-out; they come without a call.

Legend:
Experiment in all cases: Primary Screen for Target Class Profiling of Small Molecule Inhibitors of Methyltransferases
[1] = target: Glycine N-methyltransferase (Homo sapiens) (UniProt Q14749); conditions: purified enzyme, MTase-Glo SAH luminescence; measured here: GNMT inhibition; at 40 µM; stronger effect = lower value
In short: (§1)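 Each enzyme was reacted with SAM and its substrate, with compounds tested once at 40 uM; SAH formed was read by MTase-Glo luminescence.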

[2] = target: Guanidinoacetate N-methyltransferase (Homo sapiens) (UniProt Q14353); conditions: purified enzyme, MTase-Glo SAH luminescence; measured here: GAMT inhibition; at 40 µM; stronger effect = lower value
In short: as §1

[3] = target: Histamine N-methyltransferase (Homo sapiens) (UniProt P50135); conditions: purified enzyme, MTase-Glo SAH luminescence; measured here: HNMT inhibition; at 40 µM; stronger effect = lower value
In short: as §1

[4] = target: Nicotinamide N-methyltransferase (Homo sapiens) (UniProt P40261); conditions: purified enzyme, MTase-Glo SAH luminescence; measured here: NNMT inhibition; at 40 µM; stronger effect = lower value
In short: as §1

[5] = target: Phenylethanolamine N-methyltransferase (Homo sapiens) (UniProt P11086); conditions: purified enzyme, MTase-Glo SAH luminescence; measured here: PNMT inhibition; at 40 µM; stronger effect = lower value
In short: as §1
% is set by controls: 0 for no effect and ±100 for the full control effect.

SMILES | activity change, negative = inhibition [1] [%] | activity change, negative = inhibition [2] [%] | activity change, negative = inhibition [3] [%] | activity change, negative = inhibition [4] [%] | activity change, negative = inhibition [5] [%]
Cc1nn(-c2ccccc2)c2c1C(C(C)C)N(C1CN([S+](C)(=O)[O-])C1)C2=O (stereo not drawn) | -3.79 | 0.738 | 0.081 | 0.591 | 1.99
CC(C)NC(=O)Cn1nc2n(C)c(=O)c3ccc(C(=O)NC4CCCC4)cc3n2c1=O | 4.54 | 0 | 3.44 | 4.14 | 0.385
Cn1c(=O)c2ccc(C(=O)NC3CCCCC3)cc2n2c(SCC(=O)NCc3ccccc3)nnc12 | 1.1 | 1.13 | 2.01 | 0.009 | 5.49
CC(C)CCNC(=O)C1(C)Cn2nc(C(=O)NCc3ccccc3Br)cc2C(=O)N1C (stereo not drawn) | 0.593 | 0.651 | 3.84 | -1.6 | -2.4
COc1ccc(C2(C(=O)N3CCCCCC3c3nc(C4CC4)no3)CC2)cc1 (stereo not drawn) | -0.296 | -4.54 | 0.134 | -6.65 | -1.75
CCOc1ccc(CNS(=O)(=O)c2ccc3c(c2)n(C)c(=O)n3C)cc1OC | -1.15 | 4.36 | -8.65 | -8.99 | -5.9
O=C(NCCc1c[nH]c2ccc(Cl)cc12)c1cc2n(n1)CCCN(Cc1ccc(F)cc1)C2=O | -9.97 | 0 | 9.98 | -3.88 | 3.32
CC(C)n1nc(-c2ccc(NC(=O)Nc3cccc(C(F)(F)F)c3)cc2)c2c(N)ncnc21 | – | 13.3 | – | -76.5 | -2.17
Cc1ccc(N2CCN(S(=O)(=O)c3ccc4c(c3)n(C)c(=O)n4C)CC2)c(C)c1 | 14.5 | 0 | 10 | -0.512 | 6.74
CCOc1ccccc1CN1CCC[C@H]1C(=O)N1CCCCCCNC(=O)CC1 | -5.75 | -10.1 | -7.26 | -12.9 | -11.5
CC1CCN(S(=O)(=O)c2cccc3c2C(=O)c2ccccc2C3=O)CC1 | -8.36 | 0 | 8.17 | 0.4 | -7.61
O=C(CC1CC1)N1C[C@H]2OC(=O)N(CCc3cccc(Cl)c3)[C@H]2C1 | -0.527 | -4.27 | 0.23 | -8.38 | -3.1
O=C(c1n[nH]c2ccccc12)N1CCC(N2C(=O)C(OCC3CC3)C23CCCCC3)CC1 (stereo not drawn) | -24.7 | -12.2 | -6.18 | -21.8 | -13.6
COc1cc(Nc2ncc(F)c(Nc3ccc4c(n3)N(COP(=O)(O)O)C(=O)C(C)(C)O4)n2)cc(OC)c1OC | -35.1 | -14.3 | 2.08 | -18.9 | -6.71
CCOc1ccc(Cc2nc(-c3c(C)nc4ccccn34)cs2)cc1 | -12.2 | -15.3 | -3.55 | -24.2 | -10.4
Cc1cncc(C(=O)NC2CCN(c3ccc(=O)n(C)n3)CC2)c1 | -2.35 | -0.149 | 0.472 | -8.3 | -4.5

SMILES | activity change, negative = inhibition [1] [%] | activity change, negative = inhibition [2] [%] | activity change, negative = inhibition [3] [%] | activity change, negative = inhibition [4] [%] | activity change, negative = inhibition [5] [%]
CNC(=O)[C@@H]1CN(C(=O)NCc2ccc(C)cc2)C[C@H]1c1nc(C)no1 | 0.534 | 0.701 | 2.43 | -1.46 | -0.1
COc1ccc(C(OC2OC(CO)C(O)C(O)C2O)C(C)O)cc1 (stereo not drawn) | 0.875 | -2.94 | 9.5 | -16.3 | 1.95
CN1C(=O)c2cc(C(=O)NCCc3cccs3)nn2CC1(C)C(=O)NCc1ccccc1 (stereo not drawn) | 4.32 | 0.481 | 9.31 | 0.078 | 8.03
COc1ccc(CCNC(=O)c2ccc3c(=O)nc4c(-c5ccccc5)n[nH]n4c3c2)cc1OC | -46.5 | -2.94 | -9.15 | -10.4 | -11.1
COc1ccccc1CNC(=O)CN1CCCC(CO)(CC2CC2)C1 (stereo not drawn) | -2.51 | -3.08 | 1.53 | -2.84 | -0.588
CC1(C)CC2=C3C=CC4C5(C)CCC(O)C(C)(C)C5CCC4(C)C3(C)CCC2(C)C(O)C1 (stereo not drawn) | -0.463 | -9.75 | 3.4 | -20.5 | -5.23
Cc1nnc2n1CCC(N(C)C(=O)NC1CCCCC1)CC2 (stereo not drawn) | -5.62 | -5.98 | -4.97 | -8.35 | -6.56
O=C1CO[C@H]2CN(Cc3ccc4c(c3)OCO4)C[C@H]2N1Cc1ccc(F)cc1 | -2.72 | 0.43 | 0.424 | -4.63 | 1.11
O=C(Cc1ccc(F)cc1)NCc1nnc2ccc(-c3ccc(Cl)cc3)nn12 | -0.699 | 0.566 | 0.924 | -1.79 | -4.39
COc1ccc(Cl)cc1NC(=O)Cn1c(=O)oc2cc(S(=O)(=O)N3CCCC3)ccc21 | -10.3 | -0.753 | -2.56 | -3.84 | -8.18
CC(C)Cn1c(=O)c2ccccc2n2c(SCC(=O)NCc3ccccc3)nnc12 | -3.95 | 0.657 | -0.199 | -2.62 | -3.1
Cc1c(Cl)cccc1NC(=O)N1CCn2cccc2C1Cc1ccccc1 (stereo not drawn) | 12.1 | 2.93 | 6.24 | -3.17 | 2.54
C=C1C[C@]23C[C@@]1(O)CC[C@H]2[C@@]12C=C[C@H](O)[C@@](C)(C(=O)O1)[C@H]2[C@@H]3C(=O)O | 4.45 | -0.673 | 6.04 | -9.56 | 2.66
Cn1nc2n(c1=O)CCN(C(=O)c1ccc(F)cc1F)CC2 | 0.111 | -3.41 | 2.12 | 1.71 | 0.838
CCC1c2ccc(C)n2CCN1C(=O)Nc1ccc(C)c(C)c1 (stereo not drawn) | -4.04 | 1.71 | -2.79 | 1.85 | -3.46
